PubChem BioAssay AID1468 (National Center for Advancing Translational Sciences (NCATS), 2008)
Out of some 280,000 compounds screened, about 1,100 (0.39%) were called active. Inconclusive results, whose numbers are uncertain, are shown with a selection of clear calls. Calls come from the whole dose curve; as a rule, active = well fitted inhibition curve with a large enough effect; inconclusive = small, poorly fitted or top-dose-only effect, or effect the other way; inactive = flat fitted curve, though single readings scatter. No potency is given beside an inconclusive call; the fits are too rough.

Biological target: Microtubule-associated protein tau (Homo sapiens) (UniProt P10636)
Experiment: qHTS for Inhibitors of Tau Fibril Formation, Fluorescence Polarization; note: nearly all actives have a fitted effect of over 55% in size
Settings: K18 P301L tau heparin fibrillization, Alexa594 FP, 6 h; series mostly up to 57.7 µM; activity, negative = inhibition: at the top concentration
Summary of the method: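 Heparin (20 uM) drove fibril formation of recombinant tau K18 P301L, 15 uM unlabeled with 0.24 uM Alexa 594 label, for 6 hr at 37 C in 100 mM sodium acetate pH 7. Fluorescence polarization (555/632 nm) read 1 hr after 30 uM ThT.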
% is set by controls: 0 for no effect and ±100 for the full control effect; potency is the fitted concentration of half-maximal effect; tags give direction and shape of the fitted curve.

Chain of UniProt P10636 (P10636 whole entry, looked up): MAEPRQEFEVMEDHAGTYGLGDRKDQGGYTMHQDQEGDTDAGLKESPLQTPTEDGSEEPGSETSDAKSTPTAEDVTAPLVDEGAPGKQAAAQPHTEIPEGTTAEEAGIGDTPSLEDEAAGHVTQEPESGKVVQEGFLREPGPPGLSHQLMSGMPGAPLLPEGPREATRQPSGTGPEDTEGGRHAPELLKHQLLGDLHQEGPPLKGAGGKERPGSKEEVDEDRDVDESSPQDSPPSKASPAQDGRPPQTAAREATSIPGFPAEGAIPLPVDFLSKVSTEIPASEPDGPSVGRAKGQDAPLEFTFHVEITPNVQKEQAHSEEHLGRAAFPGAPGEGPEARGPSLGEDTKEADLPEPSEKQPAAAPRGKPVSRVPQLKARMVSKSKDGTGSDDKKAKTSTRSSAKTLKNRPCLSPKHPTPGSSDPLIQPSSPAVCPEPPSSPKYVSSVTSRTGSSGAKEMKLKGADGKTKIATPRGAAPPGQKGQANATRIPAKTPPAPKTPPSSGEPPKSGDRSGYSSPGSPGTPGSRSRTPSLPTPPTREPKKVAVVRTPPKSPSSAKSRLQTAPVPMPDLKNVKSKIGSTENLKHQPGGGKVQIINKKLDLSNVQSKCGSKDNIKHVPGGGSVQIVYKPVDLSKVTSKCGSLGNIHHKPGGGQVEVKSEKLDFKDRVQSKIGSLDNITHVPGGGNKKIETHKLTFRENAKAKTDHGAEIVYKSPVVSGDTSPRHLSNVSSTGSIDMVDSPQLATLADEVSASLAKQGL

SMILES | activity, negative = inhibition | Potency
C=CCC(NCc1ccccc1)c1ccc(Cl)cc1 (stereo not drawn) | inactive: -10.6% | 
CC(C)C[C@H](NC(=O)[C@H](CCC(N)=O)NC(=O)[C@H](CCCCN)NC(=O)[C@H](CCC(N)=O)NC(=O)[C@@H](N)CCC(=O)O)C(=O)N[C@@H](CCC(N)=O)C(=O)O | inactive: -3.32% | 
CC(Cc1ccccc1)C(=O)NCc1ccccn1 (stereo not drawn) |  | inconclusive [inhibitor, single point]
COc1ccc(NC(=S)N=Nc2c(O)[nH]c3ccccc23)cc1 |  | inconclusive [inhibitor, single point]
O=C(C1CCN(S(=O)(=O)c2cccc3nonc23)CC1)N1CCN(c2ccc(F)cc2)CC1 |  | inconclusive [activator, partial curve]
Nc1nc(-c2cccs2)c(NC(=O)c2ccccc2)s1 |  | inconclusive [inhibitor, partial curve]
O=C(COC(=O)/C=C/c1ccccc1)NCC1CCCO1 (stereo not drawn) | inactive: 9.9% | 
O=C(CN1CCN(S(=O)(=O)c2ccc3ccccc3c2)CC1)Nc1ccc(N2CCOCC2)cc1 | inactive: 15.4% | 
Cc1cccc(C(=O)Nc2nnc(S(=O)(=O)N3CCC(C)CC3)s2)c1 |  | inconclusive [inhibitor, partial curve, poor fit]
Oc1ccc(/C=N/N2CCOCC2)c(O)c1O |  | active: 10 µM
Oc1c(Br)cc(Br)cc1/C=N/NC(=S)N[C@H]1CC2C=CC1C2 (stereo partly drawn) |  | inconclusive [activator, full curve]
Cn1c2c(c(=O)n(C)c1=O)C(c1ccc(Cl)cc1)C(C#N)=C(N)O2 (stereo not drawn) |  | inconclusive [inhibitor, partial curve]
N#Cc1c(N)nc2c(c1N)CC(=O)N2c1ccc(Cl)cc1 |  | inconclusive [inhibitor, partial curve]
CCC(C)Cn1c(COc2ccc(OC)cc2)nc2ccccc21 (stereo not drawn) | inactive: 0.259% | 
O=C(NCc1nc2ccccc2[nH]1)C1=C[C@H](c2ccc(C(F)(F)F)cc2)C[C@H](OCc2ccc(CO)cc2)O1 |  | inconclusive [inhibitor, single point]
O=C(NCc1cccs1)Nc1cccs1 |  | inconclusive [inhibitor, partial curve]
COC(=O)c1cn(C(=O)c2ccc(C)cc2C)c2ccccc12 |  | inconclusive [inhibitor, single point]
COc1ccc(NC(=O)CCc2nc3cccnc3n2Cc2cccs2)c(OC)c1 |  | inconclusive [inhibitor, full curve, poor fit]
CCOC(=O)C1(CC2CC2)CCN(S(=O)(=O)/C=C/c2ccccc2)CC1 | inactive: 0.195% | 
CCOC(=O)c1ccc(NC(=O)Nc2cccc(OCc3cc(=O)n4ccc(C)cc4n3)c2)cc1 |  | inconclusive [inhibitor, partial curve, poor fit]
COc1ccc(NC(=O)COC(=O)CC23CC4CC(CC(C4)C2)C3)c([N+](=O)[O-])c1 |  | inconclusive [activator, partial curve]
Cn1cccc1/C=C1\SC(=S)N(NC(=O)c2ccc(Cl)cc2)C1=O |  | inconclusive [inhibitor, single point]

SMILES | activity, negative = inhibition | Potency
CC1(C)CC(=O)C(C(C2=C(O)CC(C)(C)CC2=O)c2cccc(O)c2)C(=O)C1 (stereo not drawn) |  | inconclusive [inhibitor, single point]
O=C1C(=O)N2C(=C1C(=O)N1CCCCCC1)c1ccccc1CC21CCCC1 | inactive: -4.11% | 
O=C(NCc1ccco1)c1ccc2c(c1)N(Cc1ccccc1)C(=O)c1ccccc1S2(=O)=O |  | inconclusive [inhibitor, partial curve]
COc1cccc(-n2c(COc3ccc(C)cc3)nnc2SCC(=O)O)c1 | inactive: 1.91% | 
CCCCOc1cc(CC2CNC(=O)N2)ccc1OC (stereo not drawn) |  | inconclusive [inhibitor, single point]
CCCCn1c(SCn2nnc3ccccc3c2=O)nc2cc(C(=O)OC)ccc2c1=O | inactive: 3.19% | 
CCN1/C(=C/C=C/C=C/c2sc3ccccc3[n+]2CC)Sc2ccccc21 |  | active: 17.8 µM
COC(=O)/C(=C/Nc1ccccc1)[N+](=O)[O-] | inactive: -3.08% | 
CCN(CC)S(=O)(=O)c1ccc(NC(=O)NCc2noc3ccc(C)cc23)cc1 |  | active: 14.1 µM
CC1CN(Cc2ccccc2)C(C)CC1O (stereo not drawn) |  | inconclusive [inhibitor, single point]
Cc1nc2cccnc2n1C1CCN(S(C)(=O)=O)CC1 | inactive: 1.91% | 
COc1cc2c(cc1NC(=O)c1ccc3c(c1)OCO3)oc1ccccc12 |  | inconclusive [inhibitor, partial curve]
CC1CCCN(S(=O)(=O)c2ccc(NC(=O)c3cccc(-n4cnnn4)c3)cc2)C1 (stereo not drawn) |  | inconclusive [inhibitor, partial curve, poor fit]
O=C(Nc1ccccc1)c1ccccc1OCc1ccc(S(=O)(=O)N2CCOCC2)cc1 |  | inconclusive [inhibitor, single point]
COc1ccc(OC)c(NC(=O)c2cc(-c3ccc(Cl)s3)nc3ccccc23)c1 |  | inconclusive [inhibitor, single point]
COc1ccc(NC(=O)c2nc[nH]c2C(=O)Nc2ccccc2C)cc1 |  | inconclusive [inhibitor, partial curve]
O=C(N/N=C/c1cn(-c2ccccc2)nc1-c1ccc(F)cc1)c1ccc(Br)o1 |  | inconclusive [inhibitor, partial curve]
Nc1nnc(CCS(=O)(=O)c2ccc(Cl)cc2)s1 | inactive: 1.86% | 
CCOC(=O)c1ccccc1NC(=O)CSc1nc2ccncc2[nH]1 |  | inconclusive [inhibitor, single point]
CC(=O)NN1C(=O)/C(=C/c2ccc(C(C)C)cc2)SC1=S |  | inconclusive [activator, full curve, poor fit]
CCOC(=O)c1ccc(N2C(=O)c3n[nH]c(C)c3C2c2cccc(Br)c2)cc1 (stereo not drawn) |  | inconclusive [inhibitor, partial curve, poor fit]
